Laboratory results: publication PMC12136788
Some of the results follow.

B1: chr8:142872356:142874372:-|three_prime_utr|ENSG00000160882|control|control|control (ssRNA)
RNA: GGGAGUUCUACAGUCCGACGAUCUUCCUGAGUCACCCCUCUGUCUAACCAGCCCCAGCACAAAUGGAACUCCCGAGGGCCUCUAGGACCAGGGUUUGCCAGGCUAAGCAGCAAUGCCAGGGCACAGCUGGGGAAGAUCUUGCUCAACAGAGGAUUGAGCAUCA
B2: chr5:60870179:60870280:-|3pUTR|ENSG00000049167|unk|total|mutant (ssRNA)
RNA: GGGAGUUCUACAGUCCGACGAUCUCUCCUUGCCCUUUUUGUUUUGUUUUGUUUCAAUUCUCCGAACUGCCGUUGGCAUGCCGCCGGUGCUUAAUAAUUACUUGUUUUGUUGUUUCUGUCCUAUACUUUGAGAGUUUGUGUUUGCAACAGAGGAUUGAGCAUCA
B3: chr1:204551843:204551944:+|3pUTR|ENSG00000198625|unk|FALSE|unique (ssRNA)
RNA: GGGAGUUCUACAGUCCGACGAUCAGUGUUCCUGGAAUCUCUAUGCAAGUUUUAUACAGAACAUACUUUUGGAAUCCUUGCCCUAGACAGGGGUGUCCAAUCUUUUGGCUUCCCUGGUCCACAAUGGAAGAAGAAUUGUCUUGGCAACAGAGGAUUGAGCAUCA
B4: chr9:74999729:74999870:-|CDS|ENSG00000156017|control|control|control (ssRNA)
RNA: GGGAGUUCUACAGUCCGACGAUCAGUAAAUAUUCUGGUACCUGGUGCUGGACUAGGAAGACUGGCCUGGGAAAUAGCUAUGCUAGGUUAUGCUUGUCAAGGAAAUGAAUGGAGUUUUUUUAUGCUCUUUUCUUCCAACUUUGUCAACAGAGGAUUGAGCAUCA
B5: chr3:44647099:44647200:+|3pUTR|ENSG00000186448|msi1|total|mutant (ssRNA)
RNA: GGGAGUUCUACAGUCCGACGAUCAUUUGUAUGUAAACUACAUAAAGAACUUUCCAAAUUUAACAGUAAUAAGUAAAUACAAUCCGAAAAUAAGCAAAAGACAGACAUUUCACUGAAGUACCGACCGCAAAUAAGCAAAUGAAACAACAGAGGAUUGAGCAUCA
B6: chr10:110133424:110133536:+|CDS|ENSG00000148700|unk|FALSE|bound_elsewhere (ssRNA)
RNA: GGGAGUUCUACAGUCCGACGAUCGCAUGAUGUUGAAGAUGAGCUUGCUAAGCGAGUGAGUAGGUUAAGCACAAGUACAACCAUAGAAAACAUCGAGAUUACUAUUAAGUCUCCAGAGAAAAUCGAAGAAGUCCUGUCACCUGACAACAGAGGAUUGAGCAUCA
B7: chr7:76328962:76329048:-|3pUTR|ENSG00000170027|msi1_unk|total|mutant (ssRNA)
RNA: GGGAGUUCUACAGUCCGACGAUCACCUGAGGUCUCAUUCAUCCUUAUGGUUCCGGCCUUGCCAGUUUUCCGAAGUCUCUGAUCCGUUGACAGUAUUAACACUAAAUUGCAGUUUACAGUAUUUCUACAUUACAGCCAUAUGUACAACAGAGGAUUGAGCAUCA
B8: chr10:100209595:100209696:-|CDS|ENSG00000213341|unk|total|mutant (ssRNA)
RNA: GGGAGUUCUACAGUCCGACGAUCACUUCUUUCAGAGACAGGAAUUUCUCUGGAUCCUCGGAAACCAGCCUCUCAAUGUGUUCCCGAUGGAGUUGUAAGAAAAUUAAUUAUAAUAUCCCCCGAGUAUGUGAAAUCCCGAGGGAUCAACAGAGGAUUGAGCAUCA
B9: chr7:122320167:122320338:-|CDS|ENSG00000081803|control|control|control (ssRNA)
RNA: GGGAGUUCUACAGUCCGACGAUCUGUGUUGGAAGGAACACUGAACAGUAAGACUUAUGAUACUGUGCACAGACGUUUAACAGUAGAGGAGGCCACAGCCUCUGUUUCAGAAGGAGGAGGACUUCAGGGCAUUACUAUGAAAGACAACAGAGGAUUGAGCAUCA
B10: ENSG00000119401:stop:overlap|stop_codon|ENSG00000119401|stop_codon|NA|stop_codon (ssRNA)
RNA: GGGAGUUCUACAGUCCGACGAUCACUGUUGGGAUCAUUGCAUCAAGAUCUACAGCUACCAUCUGAGAAGAUAUUCCACCCCAUAGGGGAUGAGAAAUUAUCAGUUUCUUCUGCUCCCAAGCCAACUUCCCUUCCCUUAGUUCUCAACAGAGGAUUGAGCAUCA
B11: chr12:105021166:105021267:-|3pUTR|ENSG00000136010|unk|FALSE|unique (ssRNA)
RNA: GGGAGUUCUACAGUCCGACGAUCAGUCAGACAGUGUCACUUCACUCGUCUGUUUAAAACCUUUCAAUGGCCCCCAUUUCACGUAGACCAAAGUCCAACGUAUUUACCUGGCCUACUGAUCUUGCUCCUAGCUACCUCUGACCUCAACAGAGGAUUGAGCAUCA
B12: chr15:63775065:63775180:-|CDS|ENSG00000103657|unk|total|mutant (ssRNA)
RNA: GGGAGUUCUACAGUCCGACGAUCUGGUUCAGCAGAUGUCCAUUCUGUCCGUGAACGCCCCCGGUCAAGCACUGAUGCACUUACCGAAAUGGGUGUUCGAACUGGUCUAAGUUUAUUAUUUGCGCUUCUAAGACAAAGUUGGAUCAACAGAGGAUUGAGCAUCA
B13: chrX:103676501:103676735:-|CDS|ENSG00000123562|unk|total|mutant (ssRNA)
RNA: GGGAGUUCUACAGUCCGACGAUCGGAGGUUAAAGUGAAGAUUCCUGAAGAAUUAAAACCAUGGCUUGUUGAGGACUGGGACUCCGUUACCAGGCAGAAGCAGCUGUUUCAACUCCCUGCCAAGAAAAAUGCCGAUGCAAUUCUCAACAGAGGAUUGAGCAUCA
B14: chr13:52461607:52461862:+|CDS|ENSG00000136108|unk|FALSE|bound_elsewhere (ssRNA)
RNA: GGGAGUUCUACAGUCCGACGAUCGUUACAAUCCGGAAAGGGCCUCAUGAAAAAGAACUAUUACAAUCAAAAACAGCUUUAUCUAGUGUCAAAACCAGUUCUUCUCAAGGUAUAAUAAGAAAUAAGACUCUAUCAAGAUCCAUACAACAGAGGAUUGAGCAUCA
B15: chr1:173887777:173887878:+|3pUTR|ENSG00000185278|unk|total|mutant (ssRNA)
RNA: GGGAGUUCUACAGUCCGACGAUCAAAGAGAUUUGGCAGAGGGACAGGUUGUACCUGCACUGGUGAACCAUCUGUGAGAAUGUCCGUCAUGUGCUCCUUUCCUGAGAUUGCUUUGUGGUAUGUGAAAAGGUGGGCCGAAAAGAACAACAGAGGAUUGAGCAUCA
B16: chr15:41696124:41696239:+|CDS|ENSG00000174197|unk|FALSE|unique (ssRNA)
RNA: GGGAGUUCUACAGUCCGACGAUCUGUAGCCUCACCGUUAGACCAGAACGGAAGCUUCAAUGUUGUUAUUAAAGAGGAACCUCUAGAUGAUUAUGACUACGAACUUGGUGAGUGCCCAGAAGGGGUCACUGUGAAACAGGAAGACAACAGAGGAUUGAGCAUCA
B17: chr12:57820040:57820141:-|3pUTR|ENSG00000175215|msi1|FALSE|unique (ssRNA)
RNA: GGGAGUUCUACAGUCCGACGAUCUUUUGCUUAUCAUGUUCCAUUUCGUGCCGCUUUCCCCCUUCAAGAUGCCAUUUGGAGGGUAGGGGAUCUGCUUCCCACUGUGACUGGGCUAUGGGAUUCUGACUACCUUGCUUACAGAUUCAACAGAGGAUUGAGCAUCA
B18: chr15:59095394:59095499:+|3pUTR|ENSG00000157450|unk|FALSE|unique (ssRNA)
RNA: GGGAGUUCUACAGUCCGACGAUCUAAAUACCAUCCUUAAUACUGGGAACAGAAUACAACCCAUAUAAAUCAGAUGCAGGUGGUAGUCACAUCACCAGAGUGAUCAGUAUAAAUUUUCUUGGUGUAUCCUUUUCCUUUCAACACCAACAGAGGAUUGAGCAUCA
B19: chr6:105098072:105098315:-|3pUTR|ENSG00000112276|msi1|total|mutant (ssRNA)
RNA: GGGAGUUCUACAGUCCGACGAUCGUACUUUAAAUUCAUUUAUACAAAUGAAUAAGUGUAUCUUUGUAUAAUGCAUAAAUACACCGAUAAAAACAUGUUUGCUGCCAAAGUUCCCAAUAAGAUGCUUCCUGUGUUUUUUGGCCUCAACAGAGGAUUGAGCAUCA
B20: chr6:44253573:44253761:+|CDS_3pUTR|ENSG00000096384|msi1_unk|FALSE|overlapping (ssRNA)
RNA: GGGAGUUCUACAGUCCGACGAUCUCGCAUGGAAGAAGUCGAUUAGGUUAGGAGUUCAUAGUUGGAAAACUUGUGCCCUUGUAUAGUGUCCCCAUGGGCUCCCACUGCAGCCUCGAGUGCCCCUGUCCCACCUGGCUCCCCCUGCAACAGAGGAUUGAGCAUCA
B21: chr5:171862525:171862626:-|3pUTR|ENSG00000072803|msi1|total|mutant (ssRNA)
RNA: GGGAGUUCUACAGUCCGACGAUCGACAGUGCAUGGAAAGGACGUUGGCAUCCAAUUGGCACUCCUUCUCCCUUAUUCAAUAUCCGGUUUGAUUUGCCCUUCGCCAUUGUUUCCAAAGAUCAAGGAAUGUCAAUAACAUUUUAACAACAGAGGAUUGAGCAUCA
B22: chr8:20179120:20179484:-|CDS|ENSG00000036565|control|control|control (ssRNA)
RNA: GGGAGUUCUACAGUCCGACGAUCCAUCUUCUCCUUCUUCAACAACAACACCGUGGCUGUUGAAGAAAGCGUACCUAGUGGAAUAGCAUGGAUGAAUGACACUGCCAGCACCAUCCCACCUCCAGCCACUGAAGCCAUCUCAGCCAACAGAGGAUUGAGCAUCA

target: T1, UNK ZnF1-6 (called full-length) (human, UniProt Q9C0B0 30-357); assay: nsRBNS (natural sequence RNA bind-n-seq); RBNS binding buffer (assumed for nsRBNS): 25 mM Tris pH 7.5, 150 mM KCl, 3 mM MgCl2, 0.01% Triton X-100, 500 ug/ml BSA, 20 U/ml SUPERase-In, 4 C; UNK is unkempt and MSI1 is Musashi-1; names of the RNAs are library labels; protein concentration not given here; high values mean tight binding
T1 sequence: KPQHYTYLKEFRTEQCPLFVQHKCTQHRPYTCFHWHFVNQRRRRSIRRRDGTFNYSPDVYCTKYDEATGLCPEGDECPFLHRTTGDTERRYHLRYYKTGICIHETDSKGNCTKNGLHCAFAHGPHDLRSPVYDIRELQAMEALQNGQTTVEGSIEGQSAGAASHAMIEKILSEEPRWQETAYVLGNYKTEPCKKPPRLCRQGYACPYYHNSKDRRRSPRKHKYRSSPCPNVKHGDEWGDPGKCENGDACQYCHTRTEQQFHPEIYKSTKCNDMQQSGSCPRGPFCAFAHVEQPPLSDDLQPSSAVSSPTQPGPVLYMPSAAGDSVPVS

B1 and B2 are the same in binding signal: 1.02 enrichment R for the first, 1.02 enrichment R for the second.

Going from B3 to B4, the binding signal rises from 0.433 enrichment R to 0.736 enrichment R.

First: B5
Second: B6
The binding signal of the first is higher: 1.19 enrichment R for the first, 0.533 enrichment R for the second.

First: B7
Second: B8
The binding signal of the first is lower: 0.365 enrichment R for the first, 0.684 enrichment R for the second.

Going from B9 to B10, the binding signal falls from 0.854 enrichment R to 0.595 enrichment R.

Compared with B11, B12 is higher in binding signal: 0.458 enrichment R for the first, 0.473 enrichment R for the second.

Going from B13 to B14, the binding signal rises from 0.809 enrichment R to 0.894 enrichment R.

First: B15
Second: B16
The binding signal of the first is lower: 0.76 enrichment R for the first, 1.02 enrichment R for the second.

Going from B17 to B18, the binding signal falls from 0.65 enrichment R to 0.299 enrichment R.

Going from B19 to B20, the binding signal rises from 0.38 enrichment R to 1.06 enrichment R.

First: B21
Second: B22
The binding signal of the first is higher: 0.762 enrichment R for the first, 0.437 enrichment R for the second.
